Results on 167 variants are retold here after the RNAGym collection of RNA variant scans (doi:10.7554/elife.90254).

First the molecules themselves.
B1: LINE1-mini (parent)
chain: GGCAGAGCUCAACACAGCGUGGCAAAGUGGCUGUGGCUAGACUGCC

Read counts are not given, so values of variants with three or more changes are uncertain.

In the data set the parent is B1. Briefly: self-cleavage, relative activity (ratio to wild type); higher = more cleavage; in vitro, sequencing; the parent is a self-cleaving ribozyme.
On to C8U C10U A11C A16G G40U, for which the self-cleavage was determined as 0.01.

As to U9A G17A A41U, the self-cleavage came out at 0.08.

In the case of U9A C15U G22U A26U C46A, the self-cleavage is 0.1.

With U9A A12C A24C U38A C45U, the self-cleavage is 0.

Take C8G U28G C31U: the self-cleavage amounted to 0.05.

On to C8U A16G G17A G36C, for which the self-cleavage is 0.07.

For U9A C10U G22C A39U C46G, the self-cleavage was found to be 0.04.

U9A C10A C13G C23A: the self-cleavage came out at 0.07.

As for C8U C10A G19C, the self-cleavage came to 0.01.

As to C8G U9C G30U, the self-cleavage came out at 0.02.

In the case of U9A C10U C23A G30C U43A, the self-cleavage was determined as 0.03.

With C8U C23A G27U, the self-cleavage was found to be 0.12.

In the case of U9A G19A A25C G27C U28C, the self-cleavage is 0.04.

Turning to C8U A25U C31A, the self-cleavage was determined as 1.64.

Consider C8U C10U C15G, for which the self-cleavage is 0.08.

With C8G U9G C10A A12C A41U, the self-cleavage came out at 0.01.

In the case of U9A G33A G40U, the self-cleavage came out at 0.25.

For C8U G19U G22A, the self-cleavage is 0.19.

As to U9A C10U U34G, the self-cleavage came to 0.07.

Regarding C8U A14U U38A, the self-cleavage stood at 0.22.

As for C8U G40C C46A, the self-cleavage was 0.03.

Regarding C8U A25C G35C, the self-cleavage was 0.05.

For the variant C8U C10A C31U G44C, the self-cleavage came to 0.03.

In the case of C8U G22C A26U C31A, the self-cleavage is 0.25.

For the variant U9A A16C G21U, the self-cleavage came to 0.06.

Take C8U A14U G19C U20A A24G C37U C45A: the self-cleavage turned out to be 0.01.

Turning to U9A A25U G29U G44A, the self-cleavage was 0.11.

On to C8U G27U C45G, for which the self-cleavage was found to be 0.08.

Regarding U9A A11G A12U G27A G30C, the self-cleavage came out at 0.02.

As to C8U A25U U32G, the self-cleavage turned out to be 0.36.

In the case of C8U G33A G44U, the self-cleavage was 0.36.

Consider C8U A26C G27U C31A G44C, for which the self-cleavage was found to be 0.04.

Turning to C8U C18G U32C G36C G40C, the self-cleavage was 0.04.

For the variant C8U U20C G35A, the self-cleavage was determined as 0.08.

Regarding U9A C15A C23G G29A C42G C45U, the self-cleavage was 0.13.

Turning to C8U G19C A25G G30U U32A G36C C45A, the self-cleavage amounted to 0.06.

On to C8U U20A A26U U32A G35C C37U, for which the self-cleavage worked out at 0.01.

In the case of C8U C10A G27C U28A C37U, the self-cleavage amounted to 0.01.

With C8G U9G C15U A16U C23G, the self-cleavage turned out to be 0.

With C8U C18A U20G, the self-cleavage was 0.15.

As to C8U G17C G22A, the self-cleavage was determined as 0.42.

On to U9A G22C C31A U43G, for which the self-cleavage came to 0.01.

With C8U G17U G30C G40C, the self-cleavage came to 0.08.

As to C8U A11U A26U U34A G36U, the self-cleavage turned out to be 0.03.

Turning to C8U U9A C31A, the self-cleavage worked out at 0.47.

On to U9A A26U C31A G40U, for which the self-cleavage was found to be 0.01.

As to U9A A12U G30U U34G C45A, the self-cleavage worked out at 0.03.

Take C8U G30U U43C: the self-cleavage worked out at 0.1.

With U9A G27A G30U U43A, the self-cleavage is 0.35.

On to U9A C15A G44U, for which the self-cleavage is 0.05.

In the case of U9A A14G C31U, the self-cleavage was 0.01.

As to C8U C18A A26G G33C C45A, the self-cleavage amounted to 0.01.

As to C8U C31U C37A G44U, the self-cleavage worked out at 0.01.

Consider U9A A16C C23U C37G, for which the self-cleavage stood at 0.03.

For the variant C8U U9A G40U, the self-cleavage was determined as 0.16.

As for U9A A25C G27C C31G, the self-cleavage came out at 0.03.

With C8U G29C A41U C45U, the self-cleavage worked out at 0.29.

As to C8U C10G C42A, the self-cleavage was 0.01.

In the case of U9A G17U U28A, the self-cleavage is 0.11.

Take U9A C10A A24C G33U G40U C42G: the self-cleavage was 0.

Regarding C8U C15A C45U, the self-cleavage amounted to 0.08.

Turning to U9A G22U U38G G40U, the self-cleavage is 0.16.

For the variant C8U C18A A41U, the self-cleavage was 0.15.

In the case of C8U G17A G40C, the self-cleavage came out at 0.03.

In the case of C8U A11U A14G U28A, the self-cleavage was found to be 0.02.

On to C8U G27U C46A, for which the self-cleavage turned out to be 0.56.

On to C8U A12C G40C, for which the self-cleavage was determined as 0.01.

For the variant C8U A16G G22A U28A, the self-cleavage was found to be 0.07.

Turning to C8U C23A G36U G40U C46U, the self-cleavage turned out to be 0.21.

Turning to U9A A26G U38C A39C U43A, the self-cleavage was 0.07.

With C8U U9A G17A G29U, the self-cleavage was 0.2.

Consider C8U A14G C18A C23U G36A, for which the self-cleavage amounted to 0.09.

In the case of U9A C10A G19A C23G, the self-cleavage came to 0.01.

Turning to U9A C10U A24U, the self-cleavage amounted to 0.02.

In the case of C8U G30A C37A A39U, the self-cleavage is 1.35.

With U9A U20G C23U G44C, the self-cleavage amounted to 0.02.

Turning to C8U A11G C13A C23A A24G U28C C31U, the self-cleavage came to 0.02.

Turning to C8U G17U U20G A25G A26U G36A, the self-cleavage was determined as 0.04.

As for U9A G27U C31A, the self-cleavage was found to be 0.05.

Regarding C8U U9C A16U G29A G36C, the self-cleavage stood at 0.04.

Regarding C8U G29U G36U C46U, the self-cleavage stood at 0.14.

Regarding U9A C13A C18U G19C U28C U34A U43G, the self-cleavage was 0.01.

Turning to C8U A16C G36A, the self-cleavage came out at 0.25.

Turning to C8U C15G A16G U28A C37G, the self-cleavage was 0.13.

Take C8G U9G A41G: the self-cleavage turned out to be 0.03.

On to C8U U38C A39G, for which the self-cleavage amounted to 0.15.

For U9A C10A U28A, the self-cleavage came to 0.02.

As to C8U C15G G22C C37G U38C, the self-cleavage was determined as 0.03.

As for C8U C15U G17A G33A, the self-cleavage is 1.46.

For the variant C8U C10U C15A G30A C42G G44A, the self-cleavage worked out at 0.05.

In the case of U9A C23U A25G, the self-cleavage worked out at 0.08.

As to C8U A12U A16G G36A, the self-cleavage amounted to 0.21.

Turning to C8U A11U C31U, the self-cleavage was 0.02.

For the variant C8U A16G A26U U28C, the self-cleavage came to 0.05.

For U9A C31A G35U A41G, the self-cleavage is 0.01.

For the variant U9A C31G G33C, the self-cleavage worked out at 0.27.

With U9A A14U U20A U38A, the self-cleavage was 0.05.

On to U9A G17C C37U G44A C46G, for which the self-cleavage is 0.07.

With C8U A25C U28C G36U, the self-cleavage turned out to be 0.11.

C8U G22U U38C C45A: the self-cleavage came to 0.66.

C8U C42G G44A: the self-cleavage came to 0.06.

C8G U20A C31A: the self-cleavage was 0.

With C8U C10A U20A C23A, the self-cleavage is 0.05.

With C8G U20G G33U, the self-cleavage amounted to 0.02.

Consider C8U A12G A24U G29C, for which the self-cleavage stood at 0.01.

On to C8U C15G G44U, for which the self-cleavage is 0.25.

For U9A G17A G19U A24C, the self-cleavage was determined as 0.06.

C8G U28C C42U: the self-cleavage is 0.01.

Consider U9A A26U U28A, for which the self-cleavage was 0.04.

For C8U C10U A12G A24U G35U U43A, the self-cleavage stood at 0.

U9A U20A G22C A25C G29U A41G U43C: the self-cleavage worked out at 0.03.

C8U C10G U20A U38C: the self-cleavage turned out to be 0.01.

On to U9A C31A G44C, for which the self-cleavage stood at 0.12.

For the variant C8U C23G C31G, the self-cleavage stood at 0.05.

For the variant U9A G30U G36U C42U G44U, the self-cleavage turned out to be 0.18.

As to C8U A25G U43A, the self-cleavage stood at 0.5.

Regarding C8U A12U G17U A41G C45A, the self-cleavage is 0.02.

Turning to U9A A24G A25G C31U G36U, the self-cleavage was 0.

On to C8U C18A A26G C42U, for which the self-cleavage came out at 0.09.

As to C8U C18U G19C C42U, the self-cleavage is 0.03.

Regarding C8U C10G C13G, the self-cleavage was determined as 0.

U9A C31A C46A: the self-cleavage came to 0.09.

With C8U A16G G35C G36A, the self-cleavage stood at 0.14.

In the case of C8U C18G G22C G29U, the self-cleavage was 0.08.

On to U9A C10G G29C C45G, for which the self-cleavage came to 0.

Turning to C8U G19A C37U C42A, the self-cleavage came to 0.09.

Regarding U9A A16U G21U, the self-cleavage worked out at 0.

For U9A G19U G22C G36C U38A, the self-cleavage is 0.03.

On to C8U A11G U32G G33C C46U, for which the self-cleavage turned out to be 0.04.

On to U9A G30A C31U U34G U43G, for which the self-cleavage was found to be 0.

For U9A G21U G22C C31U U34A G36U C37A U43G, the self-cleavage worked out at 0.02.

As to C8U U32G C37G, the self-cleavage turned out to be 0.11.

Take C8U C15G U20A G33A: the self-cleavage amounted to 0.06.

In the case of C8U C23U A39C, the self-cleavage turned out to be 0.18.

Take C8U C15U C23A G27C A39G: the self-cleavage came to 0.02.

For the variant U9A C15A C23A, the self-cleavage worked out at 0.05.

As for C8U C10A G40C G44A, the self-cleavage turned out to be 0.08.

U9A C10G G40U: the self-cleavage is 0.01.

C8U G36U G44C C46A: the self-cleavage turned out to be 0.03.

With C8U C15A G30A C42A C45A, the self-cleavage turned out to be 0.19.

For the variant U9A G44U C46A, the self-cleavage stood at 0.49.

For C8U C10U G30A, the self-cleavage was 0.07.

On to U9A A14C U28C, for which the self-cleavage is 0.08.

On to C8U C15U G22C G35A G40U, for which the self-cleavage came out at 0.03.

On to C8U C23G A25C C31U, for which the self-cleavage turned out to be 0.15.

C8U A11U C13A: the self-cleavage came to 0.02.

On to C8U A11C A39C, for which the self-cleavage was found to be 0.02.

In the case of C8U C13G C23A G30U G35A U43G G44A, the self-cleavage was 0.07.

Consider C8U C18A G27A, for which the self-cleavage amounted to 0.22.

For the variant U9A G27U G30A, the self-cleavage is 0.18.

For C8U U32G G33A, the self-cleavage is 0.46.

On to U9A A14U G35A, for which the self-cleavage came to 0.8.

Consider C8U A14C G30C C37A C42U U43G, for which the self-cleavage is 0.

Regarding C8U G21U G40U, the self-cleavage came out at 0.2.

On to C8U C10A A11G A25C G30U, for which the self-cleavage was 0.04.

C8U A41C G44A: the self-cleavage is 0.1.

In the case of C8U G17A G22U, the self-cleavage stood at 0.17.

For the variant C8U U9C C15U G35U, the self-cleavage was 0.07.

As to U9A G35A C45U, the self-cleavage was determined as 0.07.

For the variant U9A U20C G40U, the self-cleavage was 0.04.

Take C8U C10G G35U: the self-cleavage was found to be 0.02.

With C8G U9C G36A, the self-cleavage is 0.05.

For C8U A11U C13U C31A U43G G44A, the self-cleavage was found to be 0.03.

Consider C8U U9C U38C, for which the self-cleavage was 0.06.

Turning to U9A G29U C31U G33U G35A C37G, the self-cleavage is 1.29.

For the variant C8U A26G G27U U28G C31U U34A, the self-cleavage came to 0.04.

Regarding U9A A14C C18A G30C U34A C42A, the self-cleavage came out at 0.02.
